Read counts are not given, so values of variants with three or more changes are uncertain.
B1: CPEB3 Ribozyme (parent)
chain: UAACAGGGGGCCACAGCAGAAGCGUUCACGUCGCAGCCCCUGUCAGAUUCUGGUGAAUCUGCGAAUUCUGCUGUAUAUCUC

Variants of: B1
Experiment: self-cleavage, relative activity (ratio to wild type); higher = more cleavage; in vitro, sequencing
How it was run: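 Relative activity compares each variant's cleaved/total read fraction with that of the unmutated ribozyme. To get these fractions, barcoded CPEB3 ribozyme libraries from rounds of error-prone PCR were transcribed with T7 RNA polymerase for 5 hours at 37°C and then given 15 min of DNase I treatment before EDTA was added. The RNAs were reverse transcribed with template switching and sequenced on Illumina, and DNA sequencing linked barcodes to variants. A minimum of 5 reads applied, and three batches were averaged.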

Variant | self-cleavage
UAACAGGGGGCCACAGCAGAAGCGUUCUCGUCGCAGCCCCUGGCAAAUUCUGGUGUAUCUGCGAAUUCUGCUGUAUAUCUC [A28U U43G G46A A56U] | 0.07
UAACAGGGGGCCACAGCAGAAGCGUUCUCGUCGCAGCCCCCGUCAGAUUCUGGUGAAUCUGCGAAUUCUGCAGUAUAUCUC [A28U U41C U72A] | 0.85
UAACAGGGGGCCACAGCAGAAGCGUUCUCGUCGCAGCCCCCGUCAGAUUCUGGUGAAUCUGCGAAUUAUGCAGUAUAUCUC [A28U U41C C68A U72A] | 0.11
UAACAGGGGGCCACAGCAGAAGCGUUCUCGUCGCAGCCCCCGUCGGAUUCUGGUGAAUCUGCGUAUUCUGCUGUAUAUCUC [A28U U41C A45G A64U] | 0.12
UAACAGGGGGCCACAGCAGAAGCGUUCUCGUCGCAGCCCCUGCCAGAUUCUGGUGAAUCUGUGAAUUCUGCUGUAUAUCUC [A28U U43C C62U] | 0.09
UAACAGGGGGCCACAGCAGAAGCGUUCUCGUCGCAGCCCCUGCCAGAUUCUGGUGAACCUGCGAAUUCCGCUGUAUACCUC [A28U U43C U58C U69C U78C] | 0.08
UAACAGGGGGCCACAGCAGAAGCGUUCUCGACGCAGCCCCUGUCAGAUUCUGGUGAAUCAGCGAAUUCUGCUGUAUAUCUC [A28U U31A U60A] | 0.22
UAACAGGGGGCCACAGCAGAAGCGUUCUCGCCGCAGCCCCUGUCGGAUACUGGCGAAUCUGCGAACUCUGCUGUAUAUCUC [A28U U31C A45G U49A U54C U66C] | 0.2
UAACAGGGGGCCACAGCAGAAGCGUUCUCGUCGCAGCCCCCGUCAGAUUCUGGUGAAUCUGCGAAUUCUGCUGAAUAUCUC [A28U U41C U74A] | 0.64
UAACAGGGGGCCACAGCAGAAGCGUUCUCGUCGCAGCCCCUGUCAGACUCUGGUGAAUCUGCGGAUUCCGCUGUAUAUCUC [A28U U48C A64G U69C] | 0.1
UAACAGGGGGCCACAGCAGAAGCGUUCUCGUCGCAGCCCCUGCCAGAUUCUGGUGAAUCUGCGAAUUGUGCUGUAUAUCUC [A28U U43C C68G] | 0.62
UAACAGGGGGCCACAGCAGAAGCGUUCUCGUCGCAGCCCCUGCCGGAUUCUGGUGAAUCUGCGAAUCCUGCUGUAUAUCAC [A28U U43C A45G U67C U80A] | 0.12
UAACAGGGGGCCACAGCAGAAGCGUUCUCGUCGCAGCCCCGGUCUGUUUCUGGUGAAUCUGCGAAAUCUGCCGUAUAUCUC [A28U U41G A45U A47U U66A U72C] | 0.07
UAACAGGGGGCCACAGCAGAAGCGUUCUCGUCGCAGCCCCUGUCAGACUCUGGUGAAUCUGCGAAUUCUGCUGUAUUUCUC [A28U U48C A77U] | 0.36
UAACAGGGGGCCACAGCAGAAGCGUUCUCGACGCAGCCCCUGUCAGAUUCUGGUGAAUCUGCGAAUUCUGCUGUAUAACUC [A28U U31A U78A] | 0.59
UAACAGGGGGCCACAGCAGAAGCGUUCUCGUCGCAGCCCCUGCCAGAUUCUGGUGAAUCUGCGGAUUCUGCUGUAUAUCCC [A28U U43C A64G U80C] | 0.46
UAACAGGGGGCCACAGCAGAAGCGUUCUCGCCGCAGCCCAAGUCAGAUUCUGGUGAAUCUGCGAAUCCUGCUGUAUAUCUC [A28U U31C C40A U41A U67C] | 0.07

Variant | self-cleavage
UAACAGGGGGCCACAGCAGAAGCGUUCUCGUCGCAGCCCCCGUCAGACUCUGGUGAAUCUGCUAACCCUGCUGUAUACCUC [A28U U41C U48C G63U U66C U67C U78C] | 0.1
UAACAGGGGGCCACAGCAGAAGCGUUCUCGCCGCAGCCCCUGUCAGAUUCUGGUGGAUCUGCGAAUUCUGCUGUAUAUCCC [A28U U31C A56G U80C] | 0.43
UAACAGGGGGCCACAGCAGAAGCGUUCUCGUCGCAGCCCCCGUCAGAUUCUGGUGAAUCUGCGAAUACCGCUGUAUAUCUC [A28U U41C U67A U69C] | 0.36
UAACAGGGGGCCACAGCAGAAGCGUUCUCGACGCAGCCCCUGUCAGAUUCUGGUGAAUCUGCGAAUUCUGCGGUAUAUCUC [A28U U31A U72G] | 0.42
UAACAGGGGGCCACAGCAGAAGCGUUCUCGUCGCAGCCCCCGUCAGAUUCAGGUGAAUCUGCGAAUACUGCAGUAUAUCCC [A28U U41C U51A U67A U72A U80C] | 0.29
UAACAGGGGGCCACAGCAGAAGCGUUCUCGACGCAGCCCCUGUCAGAUUCUGGAGAAUCUGCGGAUUCUGCUGUAUAUCUC [A28U U31A U54A A64G] | 0.19
UAACAGGGGGCCACAGCAGAAGCGUUCUCGUCGCAGCCCCUGCCAGAUUCUGGUGAAUCUGCGAGUUCUGCUGUAUAUCUC [A28U U43C A65G] | 0.21
UAACAGGGGGCCACAGCAGAAGCGUUCUCGUCGCAGCCCCAGUCAGAUUCUGGUGAUUCUGCGAAUUCUGCUGUAUAUCUC [A28U U41A A57U] | 0.2
UAACAGGGGGCCACAGCAGAAGCGUUCUCGUCGCAGCCCCAGUCAGAUUCUGGUGAGUCUGCGAAUUCUGCUGUAUAUCUC [A28U U41A A57G] | 0.38
UAACAGGGGGCCACAGCAGAAGCGUUCUCGUCGCAGCCCCUGUCAGACUCUGGUUGAUCUGCGAAUUCUGCCGUAUAUCUC [A28U U48C G55U A56G U72C] | 0.12
UAACAGGGGGCCACAGCAGAAGCGUUCUCGUCGCAGCCCCUGCCAGAUUCUGGUGGAUCUGCGAAUUCUGCUGUAUAUCUC [A28U U43C A56G] | 0.11
UAACAGGGGGCCACAGCAGAAGCGUUCUCGUCGCAGCCCCUGACAGAUCCUGGUGAAUCUGCGGAUUCUGCAGUAUAUCUC [A28U U43A U49C A64G U72A] | 0.11
UAACAGGGGGCCACAGCAGAAGCGUUCUCGGCGCUGCCCCUGUCAGAUUCUGGUGGAUCUGCGAAUCCUGCCGUAUAUCUC [A28U U31G A35U A56G U67C U72C] | 0.04
UAACAGGGGGCCACAGCAGAAGCGUUCUCGUCGCAGCCCCUGUCAGACUCUGGUGAAUCUGCGAAUUCUGCCGUAAAUCUC [A28U U48C U72C U76A] | 0.2
UAACAGGGGGCCACAGCAGAAGCGUUCUCGACGCAGCCCCUGUCAGAUUUUGGUGAAUCUGCGAAUUCUGCUGUAUAUCUC [A28U U31A C50U] | 0.48
UAACAGGGGGCCACAGCAGAAGCGUUCUCGUCGCAGCCCCCGUCAGAUUCUGGUGAGUCUGCGAAUUCUGCUGUAUAUCUC [A28U U41C A57G] | 0.77
UAACAGGGGGCCACAGCAGAAGCGUUCUCGCCGCAGCCCCUGUCAGAUUCUGGUGAAUCUGCGGACUCUGCUGUAUAUCUC [A28U U31C A64G U66C] | 0.12
